Results as given in patent publication US20140031278A1, “Novel Glucagon Analogues” (NOVO NORDISK A/S, priority 2011, published 2014).
For at least one compound, name, drawing or mass did not settle the structure. *1 amine or outer side, *2 acyl side, *3 side chain or, on linkers, in order; H or OH if unused. Where a SMILES comes first, the peptide text is derived from it. Side-chain parts run from the residue outwards. γGlu = O=C(O)[C@H](CCC(=O)[*:2])N[*:1]

Test: ThT fibrillation assay for physical stability (lag time, recovery)
Format: physicochemical
Conditions: for ThT assay [Lag time]: absence of increased ThT fluorescence noted as lag time of 45 hours; for ThT assay [Recovery]: peptide concentration in filtered supernatant after ThT assay as percentage of initial

Structure (SMILES) | ThT assay [Lag time] [h] | ThT assay [Recovery] [%]
CC(C)C[C@H](NC(=O)[C@H](Cc1c[nH]c2ccccc12)NC(=O)[C@H](CCCCNC(=O)CC[C@H](NC(=O)CC[C@H](NC(=O)CC[C@H](NC(=O)CC[C@H](N)C(=O)O)C(=O)O)C(=O)O)C(=O)O)NC(=O)[C@@H](NC(=O)[C@H](Cc1ccccc1)NC(=O)[C@H](CC(=O)O)NC(=O)[C@H](CCC(N)=O)NC(=O)[C@H](C)NC(=O)[C@H](CCCNC(=N)N)NC(=O)[C@H](CCCNC(=N)N)NC(=O)[C@@H](NC(=O)[C@H](CC(=O)O)NC(=O)[C@H](CC(C)C)NC(=O)[C@H](Cc1ccc(O)cc1)NC(=O)[C@H](CCCCN)NC(=O)[C@H](CO)NC(=O)[C@H](Cc1ccc(O)cc1)NC(=O)[C@H](CC(=O)O)NC(=O)[C@H](CO)NC(=O)[C@@H](NC(=O)[C@H](Cc1ccccc1)NC(=O)[C@@H](NC(=O)CNC(=O)[C@H](Cc1c[nH]cn1)NC(=O)[C@H](CO)NC(=O)[C@@H](N)Cc1c[nH]cn1)[C@@H](C)O)[C@@H](C)O)[C@@H](C)O)C(C)C)C(=O)N[C@@H](CC(C)C)C(=O)N[C@@H](CO)C(=O)N[C@H](C(=O)O)[C@@H](C)O [Example 33, N^ε24-[(4S)-4-[[(4S)-4-[[(4S)-4-[[(4S)-4-amino-4-carboxybutanoyl]amino]-4-carboxybutanoyl]amino]-4-carboxybutanoyl]amino]-4-carboxybutanoyl]-[His3,Thr16,Lys24,Leu27,Ser28]-Glucagon] (H-HSHGTFTSDYSKYLDTRRAQDFVK([γGlu-γGlu-γGlu-γGlu])WLLST-OH) | 45 | 100
CC(=O)N[C@@H](CCC(=O)N[C@@H](CCC(=O)N[C@@H](CCC(=O)N[C@@H](CCC(=O)NCCCC[C@H](NC(=O)[C@@H](NC(=O)[C@H](Cc1ccccc1)NC(=O)[C@H](CC(=O)O)NC(=O)[C@H](CCC(N)=O)NC(=O)[C@H](C)NC(=O)[C@H](CCCNC(=N)N)NC(=O)[C@H](CCCNC(=N)N)NC(=O)[C@H](Cc1c[nH]c2ccccc12)NC(=O)[C@H](CC(=O)O)NC(=O)[C@H](CC(C)C)NC(=O)[C@H](Cc1ccc(O)cc1)NC(=O)[C@H](CCCCN)NC(=O)[C@H](CO)NC(=O)[C@H](Cc1ccc(O)cc1)NC(=O)[C@H](CC(=O)O)NC(=O)[C@H](CO)NC(=O)[C@@H](NC(=O)[C@H](Cc1ccccc1)NC(=O)[C@@H](NC(=O)CNC(=O)[C@H](CCC(N)=O)NC(=O)[C@H](CO)NC(=O)[C@@H](N)Cc1c[nH]cn1)[C@@H](C)O)[C@@H](C)O)C(C)C)C(=O)N[C@@H](Cc1c[nH]c2ccccc12)C(=O)N[C@@H](CC(C)C)C(=O)N[C@@H](CC(C)C)C(=O)N[C@@H](CO)C(=O)N[C@H](C(=O)O)[C@@H](C)O)C(=O)O)C(=O)O)C(=O)O)C(=O)O [Example 34] | 45 | 100
CC(=O)N[C@@H](CCC(=O)N[C@@H](CCC(=O)N[C@@H](CCC(=O)N[C@@H](CCC(=O)NCCCC[C@H](NC(=O)[C@@H](NC(=O)[C@H](Cc1ccccc1)NC(=O)[C@H](CC(=O)O)NC(=O)[C@H](CCC(N)=O)NC(=O)[C@H](C)NC(=O)[C@H](CCCNC(=N)N)NC(=O)[C@H](CCCNC(=N)N)NC(=O)[C@H](Cc1ccccc1)NC(=O)[C@H](CC(=O)O)NC(=O)[C@H](CC(C)C)NC(=O)[C@H](Cc1ccc(O)cc1)NC(=O)[C@H](CCCCN)NC(=O)[C@H](CO)NC(=O)[C@H](Cc1ccc(O)cc1)NC(=O)[C@H](CC(=O)O)NC(=O)[C@H](CO)NC(=O)[C@@H](NC(=O)[C@H](Cc1ccccc1)NC(=O)[C@@H](NC(=O)CNC(=O)[C@H](CCC(N)=O)NC(=O)[C@H](CO)NC(=O)[C@@H](N)Cc1c[nH]cn1)[C@@H](C)O)[C@@H](C)O)C(C)C)C(=O)N[C@@H](Cc1c[nH]c2ccccc12)C(=O)N[C@@H](CC(C)C)C(=O)N[C@@H](CC(C)C)C(=O)N[C@@H](CO)C(=O)N[C@H](C(=O)O)[C@@H](C)O)C(=O)O)C(=O)O)C(=O)O)C(=O)O [Example 35] | 45 | 100
